# Laboratory results taken from the supplement of paper PMC8047034.
# Where a name gives a salt, the structure may show the parent alone. The list shows a part of the results. Most values come without repeats; read them as rough.
# How the values were obtained:
# OVCAR4 = experiment: log2 surviving fraction (library drug vs vehicle, or drug + carboplatin vs carboplatin alone; relative to plate median); ovarian cancer lines: OVCAR4 is platinum-sensitive and Ov4Carbo platinum-resistant; higher = more cell survival; settings: library drug concentration 10 µM, 7 days
# Ov4Carbo = experiment: as above; settings: library drug concentration 10 µM, 7 days
Structure (SMILES),log2 surviving fraction (OVCAR4; carboplatin co-treatment 0 µM),log2 surviving fraction (OVCAR4; carboplatin co-treatment 5 µM),log2 surviving fraction (Ov4Carbo; carboplatin co-treatment 0 µM),log2 surviving fraction (Ov4Carbo; carboplatin co-treatment 5 µM)
Nc1ccn([C@@H]2O[C@H](CO)[C@@H](O)C2(F)F)c(=O)n1 [Gemcitabine (Gemzar)],-9.74,-6.74,-7.69,-7.47
Cc1onc(-c2ccccc2Cl)c1C(=O)N[C@@H]1C(=O)N2[C@@H]1SC(C)(C)[C@@H]2C(=O)O [Cloxacillin sodium (Cloxacap)],0.481,0.548,1.2,1.14
CCOc1ccc(NC(C)=O)cc1 [Phenacetin],-0.169,0.494,0.21,0.194
CCCN[C@H]1CCc2nc(N)sc2C1 [Pramipexole (Mirapex)],0.487,0.549,0.146,0.61
COc1ccc(O)cc1 [Mequinol],-1.01,-1.24,-0.152,-1.73
CCOc1cc(N)c(Cl)cc1C(=O)NCC1CN(Cc2ccc(F)cc2)CCO1 (stereo not given) [Mosapride citrate],0.03,1.15,0.963,0.181
Nc1nc(N)c2nc(-c3ccccc3)c(N)nc2n1 [triamterene],-0.942,-0.332,-0.0677,-0.749
N=C(N)NC(=N)NCCc1ccccc1 [Phenformin hydrochloride],-0.672,-0.336,-0.923,-0.0141
N[C@@H]1CCCCN(c2c(F)cc3c(=O)c(C(=O)O)cn(C4CC4)c3c2Cl)C1 [Besifloxacin HCl (Besivance)],0.723,-0.401,-0.147,-1.05
CC(=O)O[C@]1(C(C)=O)CC[C@H]2[C@@H]3C[C@H](C)C4=CC(=O)CC[C@]4(C)[C@H]3CC[C@@]21C [Medroxyprogesterone acetate],0.83,0.636,1.54,1.18
CC(C)(OCc1nn(Cc2ccccc2)c2ccccc12)C(=O)O [Bindarit],1.24,0.344,0.493,0.267
COCCOC(=O)C1=C(C)NC(C)=C(C(=O)OC/C=C/c2ccccc2)C1c1cccc([N+](=O)[O-])c1 (stereo not given) [Cilnidipine],-2.42,-2.13,-2.8,-2.51
COc1ccccc1OCC(O)CO (stereo not given) [Guaifenesin (Guaiphenesin)],0.0182,0.11,-0.0699,0.187
NC[C@H](O)c1ccc(O)c(O)c1 [Noradrenaline bitartrate monohydrate (Levophed)],-1.14,-0.484,0.732,-0.218
OC[C@H]1O[C@H](O[C@]2(CCl)O[C@H](CCl)[C@@H](O)[C@@H]2O)[C@H](O)[C@@H](O)[C@H]1Cl [Sucralose],-0.32,0.472,0.0521,-0.671
CC(c1cc2ccccc2s1)N(O)C(N)=O (stereo not given) [Zileuton],0.0923,-0.458,-0.0558,0.627
CN(C)c1ccc(C(=C2C=CC(=[N+](C)C)C=C2)c2ccc(N(C)C)cc2)cc1 [Crystal violet],-7.97,-6.7,-7.3,-7.16
CC(=O)SCC(Cc1ccccc1)C(=O)NCC(=O)OCc1ccccc1 (stereo not given) [Racecadotril (Acetorphan)],0.0116,0.193,0.339,0.701
Nc1nc(CC(=O)Nc2ccc(CCNC[C@H](O)c3ccccc3)cc2)cs1 [Mirabegron (YM178)],0.172,0.924,0.376,1.47
NCCCCCC(=O)O [Aminocaproic acid (Amicar)],-8.08,0.458,0.781,0.0123
OC(CCN1CCCCC1)(c1ccccc1)c1ccccc1 [Pridinol Methanesulfonate],1.12,-0.266,0.123,1.2
O=C(N/N=C/c1ccc([N+](=O)[O-])o1)c1ccc(O)cc1 [Nifuroxazide],-0.157,-0.704,-1.23,-1.87
CCc1c2c(nc3ccc(OC(=O)N4CCC(N5CCCCC5)CC4)cc13)-c1cc3c(c(=O)n1C2)COC(=O)[C@]3(O)CC [Irinotecan HCl Trihydrate (Campto)],-8.27,-6.75,-7.11,-6.73
COc1ccc2c(c1OC)C(=O)O[C@@H]2[C@H]1c2c(cc3c(c2OC)OCO3)CCN1C [Noscapine HCl],-1.43,-0.16,0.0651,0.0695
NC[C@H]1O[C@H](O[C@H]2[C@H](O)[C@@H](O[C@H]3O[C@H](CO)[C@@H](O)[C@H](N)[C@H]3O)[C@H](N)C[C@@H]2N)[C@H](N)[C@@H](O)[C@@H]1O [Bekanamycin],-5.24,-0.574,-0.0225,-1.02
